# Reference: the BET-seq Pho4 binding data (Le et al. 2018)
# The list shows a part of the results. The energies were worked out here from pooled read counts, against the library average; single values are noisy.
# Target: T1, Pho4 (S. cerevisiae) (UniProt P07270)
# T1 sequence: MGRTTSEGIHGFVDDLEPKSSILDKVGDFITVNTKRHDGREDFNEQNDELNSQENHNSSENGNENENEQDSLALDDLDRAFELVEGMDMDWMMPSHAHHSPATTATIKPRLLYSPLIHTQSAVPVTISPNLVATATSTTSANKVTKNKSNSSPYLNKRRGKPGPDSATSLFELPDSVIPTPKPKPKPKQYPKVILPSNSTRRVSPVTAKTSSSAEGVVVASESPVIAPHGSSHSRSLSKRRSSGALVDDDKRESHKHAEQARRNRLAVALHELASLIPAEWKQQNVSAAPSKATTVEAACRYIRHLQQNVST
# Test: relative binding free energy (BET-seq); higher = weaker binding
# Details: reference: library average
row,Sequence,relative binding free energy
1,GTAGTCACGTGGGAGG,0.02 kcal/mol
2,AATATCACGTGAGTGT,0.36 kcal/mol
3,AATTTCACGTGGATGA,0.18 kcal/mol
4,GACGTCACGTGGGAGG,0.12 kcal/mol
5,GGTGGCACGTGACTGC,0.1 kcal/mol
6,ATTTTCACGTGAATCG,0.42 kcal/mol
7,ATCTGCACGTGTAGTG,0.06 kcal/mol
8,TGACGCACGTGTTTGG,-0.05 kcal/mol
9,TTGGGCACGTGTGAGG,0 kcal/mol
10,TGATGCACGTGAGTAG,0.16 kcal/mol
11,ATGCTCACGTGGATGT,0.12 kcal/mol
12,AGAGTCACGTGGATGG,0.06 kcal/mol
13,ATATACACGTGAGTCG,0.35 kcal/mol
14,GCCGCCACGTGGGTGG,-0.1 kcal/mol
15,TTGGGCACGTGAGGCA,0.05 kcal/mol
16,CGGGTCACGTGTGAAA,0.18 kcal/mol
17,CGGTGCACGTGGAGAG,-0.02 kcal/mol
18,AAACGCACGTGGTGTT,-0.19 kcal/mol
19,TAAGGCACGTGGATGA,-0.06 kcal/mol
20,CTCGTCACGTGGAGTG,0.03 kcal/mol
21,TTAGTCACGTGTAGAG,0.06 kcal/mol
22,GATTACACGTGATTGT,0.22 kcal/mol
23,TAAAGCACGTGTGGTA,-0.11 kcal/mol

row,Sequence,relative binding free energy
1,TGATGCACGTGCCGTG,-0.08 kcal/mol
2,ATGGGCACGTGGATGA,-0.05 kcal/mol
3,GGGGACACGTGCGGTC,-0.05 kcal/mol
4,TTGATCACGTGTTCTT,0.17 kcal/mol
5,CGCGTCACGTGTTGGT,-0.11 kcal/mol
6,GTGATCACGTGCGGGT,0.02 kcal/mol
7,TTAGGCACGTGGTGAT,-0.16 kcal/mol
8,ATCGGCACGTGGTCGG,-0.21 kcal/mol
9,GCGCTCACGTGAGGGT,0.27 kcal/mol
10,GGCAGCACGTGTGCGT,-0.08 kcal/mol
11,GTTTTCACGTGAATTA,0.35 kcal/mol
12,GTATACACGTGTGCGG,-0.08 kcal/mol
13,GAGGACACGTGGAGGT,0.15 kcal/mol
14,CTAAACACGTGGGGGA,-0.01 kcal/mol
15,CTATGCACGTGTTGGT,-0.1 kcal/mol
16,ATGCTCACGTGTTATG,0.22 kcal/mol
17,TTGAGCACGTGGAGTT,-0.07 kcal/mol
18,GGGGTCACGTGTATGA,0.2 kcal/mol
19,TAAGGCACGTGGTGGG,-0.21 kcal/mol
20,GTTAACACGTGGAGTA,0.18 kcal/mol
21,TTCTGCACGTGGCGGG,0.02 kcal/mol
22,TGGGTCACGTGTGGAT,0.2 kcal/mol
23,GTGGACACGTGTAGGG,0.02 kcal/mol

row,Sequence,relative binding free energy
1,AGGGACACGTGATATT,0.15 kcal/mol
2,AGAGTCACGTGACTGG,0.19 kcal/mol
3,AGCGACACGTGTATTG,0.06 kcal/mol
4,GTGATCACGTGGATGA,0.21 kcal/mol
5,GCGTTCACGTGTTTTT,0.24 kcal/mol
6,TGTAACACGTGAGGGA,0.16 kcal/mol
7,GGTAACACGTGTGGTA,0.01 kcal/mol
8,GTGTGCACGTGATTTA,0.16 kcal/mol
9,CTTTTCACGTGTTGGC,0.36 kcal/mol
10,AAGGGCACGTGTGGTT,-0.02 kcal/mol
11,TCATTCACGTGTATGG,0.33 kcal/mol
12,GAGATCACGTGTCGGG,0.13 kcal/mol
13,TAATTCACGTGGTGAA,0.15 kcal/mol
14,GGCTTCACGTGTGTGG,0.33 kcal/mol
15,TGGTGCACGTGTGTTG,0.01 kcal/mol
16,GGAGGCACGTGTAGTG,-0.11 kcal/mol
17,TTGGACACGTGAAATA,0.29 kcal/mol
18,CTGAGCACGTGGGGGC,-0.29 kcal/mol
19,GGGCACACGTGATTGG,0.19 kcal/mol
20,AAATGCACGTGGTGGG,-0.06 kcal/mol
21,TTGATCACGTGGAGTA,0.24 kcal/mol
22,TGGAGCACGTGTATGT,-0.07 kcal/mol
23,TTTGACACGTGAAGGT,0.11 kcal/mol

row,Sequence,relative binding free energy
1,AGCGTCACGTGTGGTT,0 kcal/mol
2,GTGTGCACGTGTTTTG,0.05 kcal/mol
3,GTCTTCACGTGTTGCG,0.27 kcal/mol
4,GATATCACGTGCGGTG,0.1 kcal/mol
5,ATCGGCACGTGTGTCG,-0.09 kcal/mol
6,GTCGTCACGTGGTGAT,0.04 kcal/mol
7,TATGTCACGTGCGAAG,0.06 kcal/mol
8,GACTGCACGTGTAGTT,0.05 kcal/mol
9,GGGGCCACGTGGTGGG,-0.11 kcal/mol
10,GTCTGCACGTGTGGCG,0 kcal/mol
11,TGGACCACGTGGGTGG,-0.25 kcal/mol
12,TTTTACACGTGGCTAA,0.15 kcal/mol
13,AAAAGCACGTGTTGGG,0.03 kcal/mol
14,GTAGGCACGTGGTGTA,-0.14 kcal/mol
15,TGAGTCACGTGTGCTC,0.15 kcal/mol
16,TGTCACACGTGTTTAG,0.09 kcal/mol
17,TGTTTCACGTGGGGTC,0.16 kcal/mol
18,TAAGACACGTGTGGAA,0.09 kcal/mol
19,GGGTACACGTGGAGAA,0.17 kcal/mol
20,GATTACACGTGATGGT,0.23 kcal/mol
21,GGTGGCACGTGTGTGT,-0.02 kcal/mol
22,GATGGCACGTGGCGTG,-0.03 kcal/mol
23,TGGCTCACGTGGCTTG,0.2 kcal/mol

row,Sequence,relative binding free energy
1,TGGTACACGTGGGTGT,-0.03 kcal/mol
2,AGTGTCACGTGTCGGT,0.13 kcal/mol
3,CAGGACACGTGTGGAG,0.08 kcal/mol
4,CTGTGCACGTGGCCGG,-0.03 kcal/mol
5,TGCAGCACGTGTGTGG,-0.06 kcal/mol
6,TAGATCACGTGTGCTT,0.08 kcal/mol
7,ATTATCACGTGTGCAG,0.17 kcal/mol
8,TTAGTCACGTGGTCTG,-0.13 kcal/mol
9,CAGGGCACGTGGGTGC,-0.21 kcal/mol
10,GGCTTCACGTGTGGAT,0.29 kcal/mol
11,TTGCGCACGTGGTGTC,-0.28 kcal/mol
12,TGGGCCACGTGGGTGG,-0.25 kcal/mol
13,TCCTTCACGTGTGTTG,0.21 kcal/mol
14,CATGGCACGTGTGTAT,-0.14 kcal/mol
15,GAAAGCACGTGTAGGT,-0.21 kcal/mol
16,TTGTACACGTGGTATG,-0.05 kcal/mol
17,GGGACCACGTGTTTGG,0.09 kcal/mol
18,GATTGCACGTGTGATA,0.18 kcal/mol
19,GAATTCACGTGTGTTA,0.45 kcal/mol
20,GGGGTCACGTGAGACG,0.24 kcal/mol
21,ATAGGCACGTGGCGTA,-0.28 kcal/mol
22,AGTGTCACGTGTGGAT,0.08 kcal/mol
23,TCCTTCACGTGGGTAG,0.19 kcal/mol
